Test results reported in PubChem BioAssay AID624417 (National Center for Advancing Translational Sciences (NCATS), 2012).
Values joined by “and” are separate entries in the source; they are usually repeats but may differ in a detail not shown here. Identical values can stand only once. About 6,400 (1.6%) of roughly 410,000 compounds were called active. Inconclusive results, whose numbers are uncertain, are shown with a selection of clear calls. Calls follow the shape of the dose curve; as a rule, active = well fitted inhibition curve with a large enough effect; inconclusive = small, poorly fitted or top-dose-only effect; inactive = no such curve, though single readings can be large or run the other way. Potencies beside an inconclusive call are fits to weak or partial responses and may not hold up.

What follows are compounds tested against Glucagon-like peptide 1 receptor (Homo sapiens) (UniProt P43220) (assay: qHTS of GLP-1 Receptor Inverse Agonists (Inhibition Mode)). Settings: HEK293 GLP-1R CRE-luciferase, luminescence, 24 h; Potency: GLP-1R form is constitutively active unless noted; series mostly up to 38.3 µM.
Chain of UniProt P43220 (P43220 whole entry, looked up): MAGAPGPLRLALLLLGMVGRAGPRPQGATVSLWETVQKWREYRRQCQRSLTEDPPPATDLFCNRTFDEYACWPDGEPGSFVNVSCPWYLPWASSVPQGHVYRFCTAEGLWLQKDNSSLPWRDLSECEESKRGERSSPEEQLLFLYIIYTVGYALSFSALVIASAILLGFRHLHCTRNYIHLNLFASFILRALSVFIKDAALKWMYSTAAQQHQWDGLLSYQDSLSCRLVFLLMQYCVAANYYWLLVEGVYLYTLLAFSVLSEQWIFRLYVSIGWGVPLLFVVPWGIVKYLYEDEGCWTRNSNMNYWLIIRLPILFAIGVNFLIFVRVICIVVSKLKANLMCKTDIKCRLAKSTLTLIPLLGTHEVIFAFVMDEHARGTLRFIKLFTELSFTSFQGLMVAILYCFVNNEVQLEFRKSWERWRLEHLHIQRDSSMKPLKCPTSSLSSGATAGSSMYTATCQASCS
Procedure, shortened: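 Inverse agonism was detected as reduced cAMP-driven luciferase luminescence after 24 h compound treatment. The cells were HEK293 clones expressing constitutively active human GLP-1R with the reporter. Reporter-only and GPR119 cell lines served as counterscreen controls.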
Also: nearly all actives have a fitted effect of over 55% in size.
Potency is read from the fitted curve at half-maximal effect; tags tell the direction and shape of the fitted curve.

| Structure (SMILES) | Potency |
| --- | --- |
| COc1ccccc1OC(C)C(=O)N1CCC(Cc2ccccc2)CC1 (centres undefined) | inconclusive: 10 µM [inhibitor, partial curve, poor fit] |
| COc1cc(-c2nc3ccc(Cl)cn3c2Nc2ccc3c(c2)OCCO3)ccc1O | inconclusive: 14.1 µM [inhibitor, single point] |
| Cc1[nH]c2c(Cl)cccc2c1CCN | inconclusive: 10 µM [inhibitor, single point] |
| O=c1[nH]c(=S)n(Cc2ccc(F)cc2)c(O)c1C=NCCCn1ccnc1 | inactive |
| Cc1ccc2c(c1)C1CN(C)CCC1N2C(=O)CCCN1C(=O)c2cccc3cccc(c23)C1=O (centres undefined) | inconclusive: 15.8 µM [inhibitor, single point] |
| C[C@@H]1O[C@@H](O[C@H]2C[C@@H](O)[C@]3(CO)[C@H]4[C@H](O)C[C@]5(C)[C@@H](C6COC(=O)C6)CC[C@]5(O)[C@@H]4CC[C@]3(O)C2)[C@H](O)[C@H](O)[C@H]1O (some centres undefined) | inactive |
| CN(C)c1ccc(/C=C/c2cc[n+](C)c3ccccc23)cc1 | inconclusive: 5.62 µM [inhibitor, partial curve, poor fit] and inconclusive: 7.94 µM [inhibitor, partial curve, poor fit] |
| COc1ccc(CNC(=O)c2cc3c(-c4ccccc4F)nn(C)c3s2)c(OC)c1 | inconclusive: 10 µM [inhibitor, partial curve, poor fit] |
| CC(=O)OC(C)(C)/C=C/C(=O)C(C)(O)C1C(O)CC2(C)C3CC=C4C(CC(O)C(=O)C4(C)C)C3(C)C(=O)CC12C (centres undefined) | inconclusive: 7.08 µM [inhibitor, full curve, poor fit] |
| CC(C)[C@H]1C(=O)O[C@H](C(C)C)C(=O)N(C)[C@@H](C(C)C)C(=O)O[C@H](C(C)C)C(=O)N(C)[C@@H](C(C)C)C(=O)O[C@H](C(C)C)C(=O)N1C | inconclusive: 6.31 µM [inhibitor, full curve, poor fit] |
| CC(=O)OC1CCC2(C)C(CCC3C4CC(N5CC5)C(C(C)=O)C4(C)CC(=O)C32)C1 (centres undefined) | inconclusive: 28.2 µM [inhibitor, single point] |
| O=c1[nH]c2ccccc2n1CCCN1CCC(n2c(=O)[nH]c3cc(Cl)ccc32)CC1 | inactive |
| CN1CCN(c2cc(N3CCCC3)c([N+](=O)[O-])cc2F)CC1 | inconclusive: 7.94 µM [inhibitor, partial curve, poor fit] |
| CCN(CC)c1ccc(/C=N/c2sc3c(c2C#N)C2CCN3CC2)c(O)c1 | inconclusive: 0.708 µM [inhibitor, full curve, poor fit] |
| CN1C(=O)C(=Cc2ccc(Sc3ccccc3)o2)C(=O)N(C)C1=S | inactive |
| O=C(c1c[nH]c2ccc(S(=O)(=O)N3CCOCC3)cc2c1=O)N1CCC2(CC1)OCCO2 | inactive |
| CCOC(=O)c1ccccc1NC(=O)N(Cc1ccc(CC)cc1)Cc1cn[nH]c1-c1ccc(OC)cc1 | inconclusive: 3.16 µM [inhibitor, single point] |
| Cc1ccc(NC(=O)CN2C(=O)CN=C(c3ccccc3)c3cc(Cl)ccc32)cc1 | inconclusive: 7.08 µM [inhibitor, partial curve, poor fit] |
| C[C@]12CC[C@H]3[C@@H](CC[C@]4(O)C[C@@H](O)CC[C@]34C=O)[C@@]1(O)CC[C@@H]2C1=CC(=O)OC1 | active: 1 µM [setting not given] |
| COc1ccc(F)cc1CN1CCN(C(=O)CCC(=O)Nc2nnc(CC(C)C)s2)CC1 | inconclusive: 20 µM [inhibitor, single point] |

| Structure (SMILES) | Potency |
| --- | --- |
| CCc1ccc(NC(=O)c2ccc(F)c(S(=O)(=O)N3CCc4ccccc4C3)c2)cc1 | active: 8.91 µM |
| CC(Oc1ccc(Br)cc1)C(=O)N(Cc1nc(-c2ccccc2)no1)C(C)C (centres undefined) | inconclusive: 12.6 µM [inhibitor, partial curve, poor fit] |
| N=C1c2ccccc2CN1CC(=O)c1ccccc1 | inconclusive: 28.2 µM [inhibitor, single point] |
| O=[N+]([O-])c1ccc(N2CCNCC2)cc1NCC1CCCO1 (centres undefined) | inactive |
| COc1cccc(C2Nc3ccccc3C(=O)N2Cc2ccccc2)c1 (centres undefined) | inconclusive: 7.94 µM [inhibitor, partial curve, poor fit] |
| NC(N)=NC(=O)c1nc(Cl)c(N)nc1N | inconclusive: 8.91 µM [inhibitor, partial curve, poor fit] |
| O=c1c2ccccc2nc(/C=C/c2ccc(F)cc2)n1-c1ccccc1O | inactive |
| CCC(=O)OC1(c2cccc(C)c2)CC(C)N(C)CC1C (centres undefined) | inconclusive: 6.31 µM [inhibitor, partial curve, poor fit] |
| Cc1c(C(=O)NCCC2=CCCCC2)oc2ccc(S(=O)(=O)N3CCC4(CC3)OCCO4)cc12 | inconclusive: 10 µM [inhibitor, partial curve, poor fit] |
| CN1C(C(=O)NCc2cccc(C(F)(F)F)c2)CC2Cn3c(nc4cc5ccccc5cc43)C21 (centres undefined) | inconclusive: 7.94 µM [inhibitor, partial curve, poor fit] |
| Cc1ccc(Cn2nnnc2CN2CCC(n3nnc4cc(C)ccc43)CC2)cc1 | inconclusive: 28.2 µM [inhibitor, single point] |
| Cc1cc(Br)c(NC(=O)CN2CC=C(c3ccccc3)CC2)c(Br)c1 | inconclusive: 28.2 µM [inhibitor, single point] |
| CCC(=NCc1cc(OC)cc(OC)c1)c1c(O)n(C2CCCCC2)c(=O)[nH]c1=O | inconclusive: 11.2 µM [inhibitor, partial curve, poor fit] |
| CCOC(=O)c1c(N)n(CCCOC(=O)c2ccco2)c2nc3ccccc3nc12 | inconclusive: 15.8 µM [inhibitor, single point] |
| O=[N+]([O-])c1oc2ccc3ccccc3c2c1CCO | inconclusive: 10 µM [inhibitor, partial curve, poor fit] |
| O=C(Nc1cccc(Cl)c1)OCC#CCN1CCCC1 | inactive |
| COc1ccc(-n2c(Cc3ccccc3)nc3ccccc3c2=O)cc1 | inconclusive: 14.1 µM [inhibitor, single point] |
| COC(=O)C1=C(c2ccc3ccccc3c2)C[C@@H]2CC[C@H]1N2C(=O)N1CCOCC1 | inconclusive: 11.2 µM [inhibitor, partial curve, poor fit] |
| O=C(/C=C/c1cccs1)c1cc(Cl)ccc1OC(=O)N1CCOCC1 | inconclusive: 12.6 µM [inhibitor, partial curve, poor fit] |
| CC1=CC(=C2C(=O)NC(=O)NC2=O)C=C(C(F)(F)F)N1C(C)C | inactive |

| Structure (SMILES) | Potency |
| --- | --- |
| COC(=O)C1=C(c2cccc(Cl)c2)C[C@@H]2CC[C@H]1N2C(=O)NCC1CC1 | inactive |
| Cc1ccc2nc3c(cc2c1)CC1(C(=O)N(C)C(=O)N(C)C1=O)C1CCCCN31 (centres undefined) | inconclusive: 14.1 µM [inhibitor, partial curve, poor fit] |
| COCCNC(=O)N1[C@H]2CC[C@@H]1C(C(=O)OC)=C(c1ccc(-c3ccccc3)c(F)c1)C2 | inconclusive: 10 µM [inhibitor, partial curve, poor fit] |
| COc1ccc(C(=O)C(C)(C)NO)cc1 | inactive |
| CCOC(=O)c1nc2ccccc2c(=O)n1-c1ccc(C)cc1 | inconclusive: 11.2 µM [inhibitor, single point] |
| COc1ccc(OC)c(N2C(=O)NC(=O)/C(=C/c3ccc([N+](=O)[O-])s3)C2=O)c1 | inactive |
| Cc1ccc(OP(=O)(Nc2cccc(C)c2)Oc2ccc(C)cc2)cc1 | inconclusive: 5.62 µM [inhibitor, full curve, poor fit] |
| COc1ccccc1CNC(=O)Cn1c(=O)oc2cc(Cl)ccc21 | inconclusive: 22.4 µM [inhibitor, single point] |
| CCCCCN1C(=O)c2ccccc2[C@@]2(C(=O)OCC)Cc3cc(Cl)ccc3[C@@H]12 | inconclusive: 10 µM [inhibitor, partial curve, poor fit] |
| COc1ccc(CN2C(=O)NC(=O)/C(=C/c3ccc(OC)c(OC)c3OC)C2=O)cc1 | inactive |
| Cc1ccc(CN2CCCN(Cc3ccc(C)cc3)S2(=O)=O)cc1 | inconclusive: 22.4 µM [inhibitor, single point] |
| COc1ccc(C(=O)C2CCCN(Cc3ccc(C)s3)C2)c(OC)c1 (centres undefined) | inconclusive: 15.8 µM [inhibitor, partial curve, poor fit] |
| CC(C)=CCN1CC[C@@]2(C)c3cc(O)ccc3C[C@@H]1C2C (some centres undefined) | inactive |
| CCC(C)n1c(O)c(C=NCCc2ccccc2)c(=O)[nH]c1=S (centres undefined) | inconclusive: 14.1 µM [inhibitor, single point] |
| O=C1NC2C(=CC(O)C(O)C2O)c2cc3c(cc21)OCO3 (centres undefined) | inconclusive: 1.12 µM [inhibitor, full curve, poor fit] |
| COC1C(O)C(C)OC(OC2CCC3(C)C(CCC4C3C(O)CC3(C)C(C5=CC(=O)OC5)CCC43O)C2)C1O (centres undefined) | inconclusive: 0.794 µM [inhibitor, full curve, poor fit] |
| O=C(Cc1ccc(Br)cc1)N1CCN(Cc2ccccc2)CC1 | inconclusive: 8.91 µM [inhibitor, partial curve, poor fit] |
| COc1cccc(C(=O)Nc2ccc(-c3cc(C(F)(F)F)nn3-c3ccccc3)cc2)c1 | active: 7.94 µM |
| CC[C@H]1CN2CCC1C[C@@H]2[C@@H](O)c1ccnc2ccc(OC)cc12 (some centres undefined) | inconclusive: 28.2 µM [inhibitor, single point] |
